# PubChem BioAssay AID686978 (National Center for Advancing Translational Sciences (NCATS), 2013)
# About 64,000 (15%) of roughly 420,000 compounds were called active. The inconclusive results got no clear call from the source; some entries with a clear call stand among them for comparison. The call rests on the fitted dose curve; in most records, active means well fitted inhibition curve with a large enough effect; inconclusive means small, poorly fitted or top-dose-only effect; inactive means flat fitted curve, though single readings scatter. No potency is given beside an inconclusive call; the fits are too rough.
# Assay: qHTS for Inhibitors of human tyrosyl-DNA phosphodiesterase 1 (TDP1): qHTS in cells in absence of CPT; further: nearly all actives have a fitted effect of over 55% in size
# Conditions: DT40 Tdp1-/- hTDP1 cells, no CPT, ATP luminescence, 48 h; series mostly up to 46.2 µM
# Outline: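 Stably hTDP1-transfected Tdp1-null chicken DT40 cells were treated with library compounds minus camptothecin and grown for at least 48 hr at 37 °C, after which cellular ATP was quantified by luminescence.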
# Potency means the concentration at half of the fitted maximal effect; tags describe the fitted curve by direction and shape.
row,Structure (SMILES),Potency
1,CC(C)NCCCCOc1ccc(Br)cc1Cl,active: 18.4 µM
2,COc1ccc(OC)c(C2Nc3c(Cl)ccc(C(=O)O)c3C3C=CCC32)c1 (stereo unspecified),"inconclusive [inhibitor, single point]"
3,CCN1CCN(Cc2nc3c(c(=O)n(C)c(=O)n3C)n2C(C)C(C)=O)CC1 (stereo unspecified),inactive
4,COc1ccc(NS(=O)(=O)c2ccc(NC(=S)NC(=O)/C=C/c3ccccc3)cc2)nn1,active: 16.4 µM
5,COc1ccc(S(=O)(=O)Nc2cccc(-c3ccc(N4CCC(C)CC4)nn3)c2)cc1OC,"inconclusive [inhibitor, partial curve]"
6,COC1OCC(O)C(OC(=O)c2ccccc2)C1OC(=O)c1ccccc1 (stereo unspecified),"inconclusive [inhibitor, single point]"
7,CN(C)CCNC(=O)c1c(CSc2ccc(Cl)cc2)noc1C(=O)NCc1ccccc1,active: 16.4 µM
8,Cc1ccc(-c2nnnn2C2C/C(=N\NC(N)=S)C3OCC2O3)cc1 (stereo unspecified),inactive
9,CCCOc1ccc(F)cc1-c1cc(C(=O)Nc2ccc(OC)cc2C)[nH]n1,"inconclusive [inhibitor, single point]"
10,O=C(/C=C/c1ccccc1)c1c[nH]c2ccccc12,inactive
11,COc1ccc(/C=C(\NC(=O)c2cccs2)C(=O)NC(C)(C)C)cc1OC,inactive
12,O=C(COc1ccccc1Cl)NNC(=O)c1ccc2c(=O)n3c(nc2c1)CCC3,inactive
13,Cc1cc(-c2ccc(C)c(S(=O)(=O)NC(c3cccs3)C(C)C)c2)on1 (stereo unspecified),active: 18.4 µM
14,COc1ccccc1C1=NOC(C)(c2sc(-c3ccc(Cl)cc3)nc2C)C1 (stereo unspecified),"inconclusive [inhibitor, single point]"
15,O=C(Nc1cccc(F)c1)N(Cc1ccc(Cl)cc1)CC(O)C(F)(F)F (stereo unspecified),active: 25.9 µM
16,CC(C)(C)c1cc(-c2n[nH]c(=S)n2-c2ccc(Cl)cc2)n[nH]1,"inconclusive [inhibitor, single point]"
17,C[C@@H]1CN([C@@H](C)CO)C(=O)c2cc(Br)cnc2O[C@H]1CN(C)C(=O)Cc1cccnc1,inactive
18,COc1ccc(NC(=O)c2cc3c(COC(C)=O)cnc(C)c3oc2=Nc2cccc(C(=O)O)c2)c(OC)c1,active: 25.9 µM
19,COCCN(C)C(=O)CCc1nnc(Cc2ccc(-c3ccccc3)cc2)o1,"inconclusive [inhibitor, single point]"
20,COc1ccccc1N1CCN(/N=C/c2cccc(OC)c2O)CC1,"inconclusive [inhibitor, single point]"
21,Fc1ccc(NC(=S)NCCc2ccccn2)cc1,"inconclusive [inhibitor, single point]"
